In all, about 33,000 sequences were measured (“E-score (-0.5 to 0.5)”: median about -0.035, highest 2% from about 0.35 on). Some of the results follow.
Target: T1, Pdr3 (UniProt P33200)
T1 sequence: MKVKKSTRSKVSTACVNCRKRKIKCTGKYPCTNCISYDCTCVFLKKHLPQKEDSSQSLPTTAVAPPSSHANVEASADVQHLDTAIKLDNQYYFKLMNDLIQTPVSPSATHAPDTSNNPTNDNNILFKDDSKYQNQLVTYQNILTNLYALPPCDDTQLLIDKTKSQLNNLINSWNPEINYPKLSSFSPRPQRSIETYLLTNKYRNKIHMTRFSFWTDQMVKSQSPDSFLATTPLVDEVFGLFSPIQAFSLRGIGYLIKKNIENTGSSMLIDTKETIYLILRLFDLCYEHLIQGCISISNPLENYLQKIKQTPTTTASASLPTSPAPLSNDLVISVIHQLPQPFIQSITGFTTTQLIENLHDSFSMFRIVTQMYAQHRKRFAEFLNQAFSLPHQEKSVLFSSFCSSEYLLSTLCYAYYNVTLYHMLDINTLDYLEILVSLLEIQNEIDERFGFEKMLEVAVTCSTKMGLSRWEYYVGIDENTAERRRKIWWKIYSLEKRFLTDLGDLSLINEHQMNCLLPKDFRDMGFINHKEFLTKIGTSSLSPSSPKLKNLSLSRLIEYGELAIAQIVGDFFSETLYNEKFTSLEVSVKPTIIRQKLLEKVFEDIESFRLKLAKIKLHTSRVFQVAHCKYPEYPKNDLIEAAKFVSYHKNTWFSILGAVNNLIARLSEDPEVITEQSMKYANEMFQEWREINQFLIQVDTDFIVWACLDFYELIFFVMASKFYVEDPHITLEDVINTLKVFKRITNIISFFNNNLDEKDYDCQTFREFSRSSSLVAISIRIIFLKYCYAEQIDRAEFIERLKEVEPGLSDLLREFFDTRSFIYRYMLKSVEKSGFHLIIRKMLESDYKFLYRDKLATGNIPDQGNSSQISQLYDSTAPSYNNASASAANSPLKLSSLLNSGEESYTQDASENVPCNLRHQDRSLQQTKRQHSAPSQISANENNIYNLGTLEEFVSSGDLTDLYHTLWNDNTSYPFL
Experiment: PBM E-score (8-mer binding enrichment) (E-score (-0.5 to 0.5)); higher = stronger / more preferred TF binding; most listed sequences are background and not binding sites
Details: protein concentration: 200 nM; construct: GST-full length
Procedure: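 Universal 'all 10-mer' protein binding microarrays (Agilent AMADID 015681) probed with GST-tagged S. cerevisiae TFs (full-length or DBD) made by in vitro transcription/translation (PURExpress), about 100-200 nM. Bound TF was detected with fluorescent anti-GST. Each ungapped 8-mer (which stands for itself and its reverse complement) is scored by the PBM enrichment score (E-score), a modified Wilcoxon-Mann-Whitney statistic from -0.5 to +0.5, computed with the Universal PBM Analysis Suite. Scale: above 0.35 generally sequence-specific binding.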

Row | Sequence | PBM E-score
1 | CCGAGTTA | 0.195
2 | TCTGCACA | 0.0318
3 | GACTGTTA | -0.204
4 | CTGTTCCA | -0.195
5 | AAGCAGGC | -0.203
6 | AAACACTC | -0.0196
7 | AGGATCTC | -0.149
8 | CTGCACAA | -0.147
9 | CAACCGAC | 0.147
10 | AGCACACA | -0.188
11 | ATGGGTGC | -0.235
12 | CTTCGTGA | -0.069
13 | AGGAGTCC | -0.0505
14 | CGGACAGA | 0.3
15 | GTGCGTCA | -0.0339
16 | CAACTAGC | 0.162
17 | CTTTTAAC | -0.148
18 | GTGCCGTA | 0.0678
19 | GGTACGCA | -0.119
20 | TAGATTCA | -0.159
21 | CCCGGACA | 0.362
22 | ATCCAGCC | 0.0781
23 | CTTATGTA | -0.241
24 | TAACGTAA | -0.151
25 | ACACGCGA | -0.0892

Row | Sequence | PBM E-score
26 | AGACTGAA | -0.06
27 | ACCTCCAT | 0.0237
28 | CCCGTTCG | 0.15
29 | AACTTGGT | -0.0454
30 | AAAGTCCG | 0.219
31 | ACGCCTAG | -0.328
32 | AAACGGTT | -0.106
33 | CGGGTCAC | 0.152
34 | CGTATCAG | 0.159
35 | AGAATCGA | 0.0394
36 | CACGAGAC | -0.0194
37 | CCGAACTA | 0.227
38 | ATTCAGAG | 0.167
39 | GTCGGTCA | -0.117
40 | AGAGAGGA | -0.0887
41 | ATTTCTGC | 0.182
42 | CTTAAGCA | -0.0226
43 | GCCGTACA | 0.0125
44 | CCCGCATA | 0.233
45 | AAAGAGTT | -0.236
46 | AAACAACC | -0.0411
47 | GTTAGAAA | -0.0949
48 | CCGCCAAC | 0.207
49 | GTGAGAAA | -0.0422
50 | CCACGGGG | 0.335

Row | Sequence | PBM E-score
51 | ACCGGTAA | 0.183
52 | GTGTCGTA | -0.0135
53 | GAGGAGGA | -0.215
54 | CCCTGCCG | 0.186
55 | AATTATTG | 0.073
56 | CTCTCAGA | -0.208
57 | ACTCGTGG | -0.0717
58 | CAGATAAC | 0.0515
59 | ACCGTTAG | -0.208
60 | AGCCAATG | -0.195
61 | AATATGAC | 0.0166
62 | CCTATTAA | -0.0439
63 | ACCTAGGG | -0.129
64 | CTTTCGAA | -0.129
65 | ATAGGTAC | -0.0461
66 | AGACCATG | -0.161
67 | GTTAGAGA | -0.274
68 | AATTCCCA | -0.171
69 | CTCTACTC | -0.0643
70 | AAACTAGA | -0.112
71 | AGAACTTA | 0.057
72 | CAGCCAAG | -0.183
73 | AACTGGGG | 0.0342
74 | ATGTAACG | -0.0492
75 | AAAGACAC | -0.0629

Row | Sequence | PBM E-score
76 | ATACTACC | -0.121
77 | CCCTTTCG | 0.056
78 | AACTTCAC | -0.136
79 | AGGCTAGC | -0.253
80 | AGTTCTAG | -0.0244
81 | AGTCATAG | -0.214
82 | TAAGAGAA | -0.194
83 | TGAACACA | -0.0105
84 | GATGGCTA | 0.0264
85 | CGAACAAC | 0.167
86 | ATAATACA | 0.212
87 | CGTCAGCC | 0.152
88 | GATGAACC | 0.134
89 | ATAGTCCG | 0.202
90 | GATGGGCC | -0.0233
91 | ACCGTGCT | -0.0933
92 | GGACCGCC | 0.0997
93 | CGCTCGAC | -0.0496
94 | TCGGATCA | 0.303
95 | CTCCTGAC | -0.102
96 | CAGGTATG | -0.0604
97 | AGTATTGG | -0.247
98 | CAGTAAGG | -0.142
99 | CTTAGCGC | 0.172
100 | AAACGAAT | -0.0316

Row | Sequence | PBM E-score
101 | AGAACGAC | -0.128
102 | AAAGTCAC | -0.0173
103 | CCACATAG | -0.0493
104 | TCACTACA | 0.0233
105 | CCCCCTAA | -0.274
106 | AAAAAGCA | -0.27
107 | GAGTTCAC | -0.0568
108 | TACCAATA | -0.226
109 | AAAGGATG | -0.129
110 | CTGCTAAA | 0.0211
111 | GCGGGACA | 0.318
112 | AGTTACAT | -0.193
113 | CGTGGCGC | -0.0222
114 | AGCGTCTG | -0.165
115 | ACCCTTAG | -0.217
116 | TATTCAGA | -0.119
117 | ATCGTTCC | 0.202
118 | AAACGTAA | -0.104
119 | ATATCACA | -0.214
120 | AGATGGTA | 0.076
121 | CACGGGTA | 0.057
122 | CAAGGGAC | -0.267
123 | ATACTGGC | -0.112
124 | GAATTCTC | 0.05
125 | AGAGCCCA | -0.0752

Row | Sequence | PBM E-score
126 | GATCCACC | -0.0343
127 | AACGTGGT | -0.232
128 | GGCTGGTA | -0.0333
129 | CCATCGGG | 0.192
130 | AGGTGCAG | -0.084
131 | AGTTGTGC | -0.0268
132 | CCGATTCC | 0.395
133 | AGTCTATG | -0.397
134 | ATCAAGCA | -0.0231
135 | TATGACGA | -0.0199
136 | CTGCGGTC | 0.0312
137 | CCAGTATA | -0.00344
138 | CCTTAAAA | -0.354
139 | ATCCATAG | -0.00615
140 | GAAAGCCC | 0.201
141 | ATGAAGAA | -0.0658
142 | GCTCATAC | -0.138
143 | AAAAGACG | 0.0113
144 | ACAAGTTA | 0.119
145 | ACGTCTGC | -0.203
146 | GAGTCGGA | 0.234
147 | GGTGCAAC | 0.0956
148 | AGGACGCG | -0.0115
149 | CACGACCG | -0.0793
150 | AGCTCGCG | 0.142

Row | Sequence | PBM E-score
151 | ACGCCGAG | 0.171
152 | CGGTTCGA | 0.198
153 | AGAGCCGG | 0.212
154 | TAAGGAAA | -0.0801
155 | ATTGTTAC | 0.00902
156 | CAGTAGAG | -0.172
157 | CTGGCAAG | -0.099
158 | AGCTTATG | -0.129
159 | ATTATCTC | 0.145
160 | CAATCTCC | 0.0806
161 | AACCCGAC | 0.185
162 | AAGTGACT | -0.241
163 | CCTGGTGA | -0.0715
164 | ACAGCAGT | 0.0268
165 | CGAAGCGA | -0.0242
166 | AAACTCAA | 0.0182
167 | ATGTTTCC | 0.31
168 | CGTGGGTC | 0.0139
169 | AGAGGGAC | -0.106
170 | GCCAGAGC | -0.147
171 | AGCCCAAA | 0.0809
172 | GGCGCAAA | 0.123
